Experimental data as given in PubChem BioAssay AID651820 (National Center for Advancing Translational Sciences (NCATS), 2012).
“And” between values parts separate entries of the source, which are not always exact repeats. Equal values may be shown once. The whole screen tested about 340,000 compounds, of which about 12,000 (3.5%) were called active. Inconclusive means that the source gave no clear call. Such entries were picked first, then a sample of the others. Calls come from the whole dose curve; as a rule, active = well fitted inhibition curve with a large enough effect; inconclusive = small, poorly fitted or top-dose-only effect, or another doubt; inactive = no such curve, though single readings can be large or run the other way. Potencies of inconclusive entries are doubtful fits and often do not repeat.

Assay: qHTS Assay for Inhibitors of Hepatitis C Virus (HCV)
Details: Huh7.5.1 HCVcc-Cre (HCVcc is cell-culture hepatitis C virus) infection, luciferase reporter, 44 h; activity change, negative = inhibition: at 41.8 µM (top of the series) unless noted
Procedure, shortened: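 Luciferase read-out (15 sec integration) after a 15 min room-temperature substrate step quantifies HCVcc-Cre infection. Cells, 1,000 per well, had compound added 4 h post-plating, then virus at ~0.5 moi, and were cultured 44 h.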
% is set by controls: 0 for no effect and ±100 for the full control effect; potency is the fitted concentration of half-maximal effect; tags give direction and shape of the fitted curve.

Row | SMILES | Potency | activity change, negative = inhibition
1 | C=CCSc1nsc(NC(=O)Nc2ccc(F)cc2)n1 | active: 22.4 µM | 
2 | CC(C)(C)C(=O)NC(=S)Nc1ccc(Cc2ccncc2)cc1 | inconclusive: 35.5 µM [inhibitor, partial curve, poor fit] | 
3 | COCC(=O)N1CCC(Oc2ccc(C(=O)N3CCSCC3)cc2)CC1 |  | inactive: 9.11%
4 | CCOC(=O)c1[nH]c2ccc(Cl)cc2c1NC(=O)c1nonc1C | inconclusive: 0.891 µM [inhibitor, full curve] | 
5 | CCOC(=O)c1c(NC(=O)C[n+]2ccc(Cc3ccccc3)cc2)sc(C)c1C | active: 1.26 µM | 
6 | CCC(=O)N1CCc2cc(Br)cc(S(=O)(=O)NC3CCN(Cc4ccccc4)CC3)c21 | inconclusive: 31.6 µM [inhibitor, single point] | 
7 | CCCCCOc1ccc(Br)cc1CSC(=N)N | active: 7.94 µM | 
8 | CN(Cc1ccc(OC(F)F)cc1)C(=O)C1CCN(S(=O)(=O)c2ccc3c(c2)OCCO3)CC1 | active: 6.31 µM | 
9 | CC(C)Cn1c(=O)c2c(nc3n2CCCN3Cc2ccccc2)n(C)c1=O | inconclusive: 31.6 µM [inhibitor, single point] | 
10 | COc1ccc(NC(=O)c2ccc(COc3ccccc3Br)o2)c(OC)c1 | inconclusive: 12.6 µM [inhibitor, partial curve] | 
11 | CC12CCC(C(=O)Nc3ccc(Cl)cc3)([C@H](Br)C1=O)C2(C)C (stereo not given in full) |  | inactive: 4.65%
12 | CC(C)(C)OC(=O)C[C@@H]1C/C=C\C[C@H](CC(=O)N(CCO)Cc2ccccc2)C(=O)NCCOC1=O |  | inactive: -6.16%
13 | COc1ccc(Cl)cc1NC(=O)c1cc(S(=O)(=O)N2CCCC2)cn1C | active: 11.2 µM | 
14 | Cc1ccccc1SCC(=O)NNC(=O)c1ccccc1O | inconclusive: 31.6 µM [inhibitor, single point] | 
15 | CC(C)(C)CC(=O)Nc1nnc(SCC(=O)N2CCCCC2)s1 |  | inactive: 3.04%
16 | Cc1ccc(SCC(=O)N2CCN(S(=O)(=O)c3cccs3)CC2)cc1 |  | inactive: -29.5%
17 | O=C1c2ccccc2-c2onc3ccc(N4CCCC4)c1c23 |  | inactive: -15.4%
18 | C=CCn1c(SCc2cc(C(C)=O)ccc2OCC)nc2ccccc2c1=O | inconclusive: 0.708 µM [inhibitor, full curve, poor fit] | 
19 | O=S(=O)(Nc1ccc2c(c1)nc1n2CCN(Cc2ccccc2)C1)c1ccc(Cl)cc1 | active: 11.2 µM | 
20 | COC(=O)c1[nH]c2cc(C)ccc2c1NC(=O)CN1CCc2cc(OC)c(OC)cc2C1 | inconclusive: 0.891 µM [inhibitor, full curve] | 
21 | COc1ccc(-n2cc3c(-c4cccc(Br)c4)nnc(C)c3n2)cc1 | inconclusive: 11.2 µM [inhibitor, single point] | 
22 | O=C(O)CCc1ccc(-c2ccc(Cl)cc2)n1Cc1ccco1 |  | inactive: 13.5%
23 | COc1ccccc1NC(=O)OC(C)c1ccc(Cl)cc1 (stereo not given) | inconclusive: 31.6 µM [inhibitor, single point] | 
24 | CCOc1ccc2nc(N3C(=O)/C(=C/c4ccc(Cl)cc4)NC3=S)sc2c1 | inconclusive: 14.1 µM [inhibitor, single point] | 

Row | SMILES | Potency | activity change, negative = inhibition
25 | O=C1CCCN1CCC(=O)N1CCCC(Nc2ccc(F)c(F)c2)C1 (stereo not given) |  | inactive: 19.2%
26 | CCN(CC)CCNC(=O)c1cc2c(-c3ccc(Cl)cc3)nn(C)c2s1 | inconclusive: 20 µM [inhibitor, single point] | 
27 | CC(=O)Nc1nc2ccc(C(=O)NC3CCCCC3)cc2s1 | inconclusive: 10 µM [inhibitor, partial curve] | 
28 | Cc1cc2c(nc1C)CCCN2C[C@@H](C)O/N=C1/[C@H]2CCn3c(=O)n(-c4ccccc4)c(=O)n3[C@H]2[C@H](O)[C@@H]2O[C@H]12 | inconclusive: 12.6 µM [inhibitor, single point] | 
29 | CCCCN(C(=O)CSc1nc2ccccc2n1CC)C1CCS(=O)(=O)C1 (stereo not given) | inconclusive: 10 µM [inhibitor, single point] | 
30 | Cn1cc(Cl)c(C(=O)Nc2cccc(Cl)c2Cl)n1 | inconclusive: 31.6 µM [inhibitor, single point] | 
31 | COC(CSc1ncnc2c1oc1nc3c(cc12)COC(C)(C)C3)OC | inconclusive: 31.6 µM [inhibitor, single point] | 
32 | CCOC(=O)N1CCN(C(=O)c2cn(CC)c3ccc(S(=O)(=O)N4CC(C)CC(C)C4)cc3c2=O)CC1 (stereo not given) |  | inactive: -5.93%
33 | CCOC(=O)c1sc2nc(CC(=O)OC)nc(NCc3ccc(F)cc3)c2c1C | inconclusive: 5.62 µM [inhibitor, single point] | 
34 | COc1ccc(-c2nn(-c3ccccc3)cc2C(=O)Nc2ccc(C(=O)O)cc2)cc1 | inconclusive: 5.62 µM [inhibitor, single point] | 
35 | Cc1cc(OC(C)C(=O)NCc2cccnc2)c2c(C)c(Cc3ccccc3)c(=O)oc2c1 (stereo not given) | active: 12.6 µM | 
36 | Cc1ccc2c(C)nc(/N=C(\N)NC(=O)N3c4ccccc4Sc4ccccc43)nc2c1 | inconclusive: 11.2 µM [inhibitor, single point] and inconclusive: 5.01 µM [inhibitor, full curve] | 
37 | Cc1[nH]c2c(C(=O)N3CCCC(CCC(=O)NCc4ccccc4F)C3)cccc2c1C (stereo not given) | inconclusive: 31.6 µM [inhibitor, single point] | 
38 | CC(C)c1ccc(NC(=S)NC2CCN(Cc3ccccc3)CC2)cc1 | inconclusive: 11.2 µM [inhibitor, partial curve] | 
39 | Cc1nc(CCNS(=O)(=O)c2cccs2)cs1 | inconclusive: 3.16 µM [inhibitor, single point] | 
40 | CC(C)OC(=O)c1c2c(n3ccccc13)C(=O)c1ccccc1C2=O | inconclusive: 6.31 µM [inhibitor, partial curve] | 
41 | CC(=O)c1ccc(OCCCC(=O)Nc2cccc(S(=O)(=O)N3CCCCC3)c2)cc1 | inconclusive: 11.2 µM [inhibitor, single point] | 
42 | COc1ccc(C2N=C(N)N=C(N)N2c2ccc(C)cc2)cc1 (stereo not given) |  | inactive: -4.76%
43 | CCc1ccc(NC(=O)C(=O)NCCOc2ccccc2Cl)cc1 |  | inactive: -23%
44 | CC(C)Oc1ccc(CSc2ncn[nH]2)cc1 |  | inactive: -5.01%
45 | O=C(COC(=O)CCC(=O)c1ccc(F)cc1)Nc1nnc(-c2ccccc2)o1 | inconclusive: 31.6 µM [inhibitor, single point] | 
46 | COc1ccc(NC(=O)c2ccc(NC(=O)C3CC3)cc2)cc1 | inconclusive: 10 µM [inhibitor, partial curve] | 
47 | Cc1cccc(NC(=O)c2ccc(S(=O)(=O)N3CCC(C)CC3)cc2)n1 | inconclusive: 31.6 µM [inhibitor, single point] | 
48 | Cc1ccc(-n2ncc(C(=O)NCC3CCN(C4CCCC4)C3)c2C2CCN(C(=O)OC(C)(C)C)CC2)cc1C (stereo not given) |  | inactive: 10.8%

Row | SMILES | Potency | activity change, negative = inhibition
49 | Cc1cc(=O)oc2cc(OCC(=O)N3CCN(C(=O)C4COc5ccccc5O4)CC3)c(Cl)cc12 (stereo not given) | inconclusive: 2.51 µM [inhibitor, full curve] | 
50 | O=C(c1cccs1)c1ccc(-c2cccs2)s1 | inconclusive: 31.6 µM [inhibitor, single point] | 
51 | COc1ccccc1N1C(=O)c2cccc3c(Cl)ccc(c23)C1=O | inconclusive: 11.2 µM [inhibitor, single point] | 
52 | CN(C)c1ccnc(-n2cccc2/C=N/OCc2ccccc2)c1C#N | inconclusive: 5.62 µM [inhibitor, single point] | 
53 | COc1ccc(CC(=O)O/N=C(\N)c2ccccc2)cc1OC | inconclusive: 31.6 µM [inhibitor, single point] | 
54 | O=C(COc1ccccc1Br)Nc1ccccc1C(F)(F)F |  | inactive: -10.9%
55 | Cc1noc(C)c1COC(=O)c1ccc(F)c(S(=O)(=O)N2CCOCC2)c1 |  | inactive: 2.67%
56 | CN(Cc1ccccc1)C(=O)c1[nH]cnc1C(=O)Nc1ccc(Cl)cc1 | inconclusive: 15.8 µM [inhibitor, single point] | 
57 | CC1CC(C)CN(CCCNC(=O)c2ccc3c(c2)N(Cc2ccccc2)C(=O)c2ccccc2S3=O)C1 (stereo not given) | inconclusive: 14.1 µM [inhibitor, single point] | 
58 | Cc1ccc(NC(=O)N/C=C/c2ccco2)c(C)c1 | inconclusive: 3.55 µM [inhibitor, single point] | 
59 | COc1ccc(CNC(=O)c2cc(C3CC3)nc3c2cnn3C(C)C)cc1OC | inconclusive: 0.355 µM [inhibitor, full curve, poor fit] | 
60 | COc1cccc(CN2CCN(Cc3ccc(O)cc3)CC2CCO)c1 (stereo not given) |  | inactive: -7.78%
61 | CCN(CC)C(=O)c1ccc(NC(=O)COc2ccc([N+](=O)[O-])cc2Cl)cc1 | inconclusive: 31.6 µM [inhibitor, single point] | 
62 | CCCn1nc(C(=O)NNC(=O)CCCOc2ccc(OC)cc2)c2ccccc2c1=O |  | inactive: -26.9%
63 | CCn1c(=O)c2cc(C(=O)NC(C)C)sc2c2ccccc21 | inconclusive: 15.8 µM [inhibitor, partial curve] | 
64 | COc1ccccc1NC(=O)CS(=O)(=O)c1cn(CC(=O)N2CCOCC2)c2ccccc12 |  | inactive: 4.15%
65 | Cc1sc2nc(CN(C(=O)c3cccs3)C3CCCC3)[nH]c(=O)c2c1C | inconclusive: 31.6 µM [inhibitor, single point] | 
66 | O=C1[C@@H](c2ccccc2)[C@@H](c2ccccc2)N1c1cccnc1 | active: 5.01 µM | 
67 | Cc1ccc(C)c(-n2c3nc(=O)[nH]c(=O)c-3cc3cc([N+](=O)[O-])ccc32)c1 |  | inactive: -22.5%
68 | O=C(CCC(=O)c1ccc(F)cc1)NC1CCCN(Cc2ccccc2F)C1 (stereo not given) |  | inactive: -8.52%
69 | CC(=O)N1CCN(c2nc(-c3ccco3)c3c(c2C#N)CC(C)(C)SC3)CC1 | active: 12.6 µM | 
70 | Cc1cc(Cl)nc(SCC(=O)c2ccccc2)n1 |  | inactive: -1.98%
